We go through 43 molecules from publication PMC4336329 (PLoS ONE, 2015).

The structures appear in SMILES notation. The campaign covered roughly 310,000 compounds. About 2,200 (0.71%) showed an effect of 50% or more. The effect is printed as a negative number. The list shows a part of the results.

This assay deals with human ether-à-go-go-related gene (hERG) potassium channel (human, UniProt Q12809). As to the kind of experiment: primary screen, population patch clamp on CHO cells stably expressing hERG.
human ether-à-go-go-related gene (hERG) potassium channel, sequence (Q12809 whole entry, looked up): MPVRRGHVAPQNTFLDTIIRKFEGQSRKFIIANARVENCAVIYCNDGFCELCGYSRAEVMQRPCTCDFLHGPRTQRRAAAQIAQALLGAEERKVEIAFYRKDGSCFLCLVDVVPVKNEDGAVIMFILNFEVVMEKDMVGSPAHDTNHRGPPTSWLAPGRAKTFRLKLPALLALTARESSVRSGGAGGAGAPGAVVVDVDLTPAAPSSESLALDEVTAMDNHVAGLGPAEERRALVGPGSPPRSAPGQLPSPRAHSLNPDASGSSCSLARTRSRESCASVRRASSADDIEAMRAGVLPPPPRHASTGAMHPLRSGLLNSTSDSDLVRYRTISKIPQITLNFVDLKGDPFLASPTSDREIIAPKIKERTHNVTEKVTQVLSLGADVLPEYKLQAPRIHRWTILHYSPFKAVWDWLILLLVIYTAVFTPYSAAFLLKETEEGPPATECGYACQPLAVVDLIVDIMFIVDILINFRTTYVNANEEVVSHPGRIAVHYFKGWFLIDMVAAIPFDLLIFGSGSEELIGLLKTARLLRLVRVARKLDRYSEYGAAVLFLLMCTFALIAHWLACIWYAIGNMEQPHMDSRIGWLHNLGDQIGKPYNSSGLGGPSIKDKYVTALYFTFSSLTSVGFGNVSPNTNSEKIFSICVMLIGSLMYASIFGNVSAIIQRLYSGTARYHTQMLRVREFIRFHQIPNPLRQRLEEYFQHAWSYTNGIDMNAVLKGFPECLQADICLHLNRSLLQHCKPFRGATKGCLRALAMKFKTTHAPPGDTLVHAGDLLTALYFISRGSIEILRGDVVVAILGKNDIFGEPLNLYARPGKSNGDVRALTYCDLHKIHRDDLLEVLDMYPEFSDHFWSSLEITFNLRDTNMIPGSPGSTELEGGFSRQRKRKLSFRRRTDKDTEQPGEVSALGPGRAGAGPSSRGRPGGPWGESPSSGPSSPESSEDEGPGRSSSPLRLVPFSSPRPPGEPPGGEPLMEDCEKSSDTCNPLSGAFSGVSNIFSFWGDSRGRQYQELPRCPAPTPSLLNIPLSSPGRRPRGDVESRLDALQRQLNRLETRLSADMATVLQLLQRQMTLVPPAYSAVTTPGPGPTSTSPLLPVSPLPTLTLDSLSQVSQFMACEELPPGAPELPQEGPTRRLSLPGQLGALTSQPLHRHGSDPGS
As to `CSc1ccccc1NC(=S)N/N=C/c1cccn1Cc1ccc(F)cc1`, the “hERG current change (%, negative = inhibition) at 1uM” value was 11.9%.

For the molecule `Cn1c(=O)c(C(=O)NCCO)c(O)c2ccccc21`, the “hERG current change (%, negative = inhibition) at 1uM” value turned out to be 7.69%. Next, `O=C(O)C1C2C=CC(C2)C1C(=O)NCCc1ccncc1` (stereo not shown): 11.1%; `O=C(c1ccc(Cl)c(S(=O)(=O)N2CCCC2)c1)N1CCN(c2ccccc2)CC1`: 6.96%.

For the molecule `O=C(CN1CCN(C(=O)C2CCCO2)CC1)Nc1cc(Cl)ccc1Cl` (stereo not shown), the “hERG current change (%, negative = inhibition) at 1uM” value was -4.93%. `COc1ccc(C(=O)NC(=S)Nc2ccc(N3CCOCC3)cc2)cc1Cl`: the “hERG current change (%, negative = inhibition) at 1uM” value was found to be 13.5%. Next, `COc1ccc(CN2C(=O)c3cccnc3C2=O)cc1S(=O)(=O)N(C)c1cccc(C)c1`: 10.1%; `O=C(CCCOc1ccccc1)n1nnc2ccccc21`: 14.9%. Next, `O=C(Cc1ccccc1F)NC1CCCN(Cc2ccc(Cl)cc2)C1` (stereo not shown): 8.12%; `CC(=O)NC(=S)Nc1ccc(NC(=O)COc2ccc(Cl)cc2Cl)cc1`: 12.8%. Next, `O=C(N/N=C/c1cccc(O)c1)c1ccc2c(c1)OCCO2`: 10.3%; `CCOC(=O)CN(C(=O)CNC(=O)c1cccs1)C(C(=O)NC1CCCCC1)c1cccs1` (stereo not shown): 11.9%. In the case of `CC(C)C(C)NC(=O)COC(=O)c1cccc(C(=O)OCC(=O)NC(C)C(C)C)n1` (stereo not shown), the “hERG current change (%, negative = inhibition) at 1uM” value worked out at 5.12%. As to `Cc1ccc(S(=O)(=O)NC(CC(C)C)C(=O)NCCCn2nc(C)cc2C)cc1` (stereo not shown), the “hERG current change (%, negative = inhibition) at 1uM” value worked out at 8.59%.

Turning to `COc1cc(C(=O)Nc2scc(-c3ccc(Br)cc3)c2C(=O)O)cc(OC)c1OC`, the “hERG current change (%, negative = inhibition) at 1uM” value came out at 19.5%. The result for `COc1ccc(CNC(=O)CN(Cc2ccco2)C(=O)CNS(=O)(=O)c2ccccc2)cc1` reads 5.2%; that for `O=c1[nH]c(/C=C/c2ccccn2)nc2ccccc12`, 13.3%.

Consider `O=C1c2ccccc2C(=O)N1CSc1nnc2c3ccccc3n(CCc3ccccc3)c2n1`, for which the “hERG current change (%, negative = inhibition) at 1uM” value was found to be 11.3%. Next, `CCn1c(CCNC(=O)c2ccc(OC)cc2)nnc1SCc1ccc(Cl)c(Cl)c1`: -1.18%; `CC(C)(C)NCC(=O)N/N=C/c1ccc(OCc2ccccc2)cc1`: 4.72%; `O=C1/C(=C/c2cccnc2)SC(=S)N1c1ccc(O)cc1`: 12.7%. Next, `COc1ccc(S(=O)(=O)N2CCCCC2)cc1NC(=O)Cn1c(=O)cnc2ccccc21`: 2.11%; `COc1ccc(Cl)cc1S(=O)(=O)N1CCN=C1C`: 7.72%.

`COC(=O)C/C=N/N=C1/NC(=O)/C(=C/C(=O)O)S1`: the “hERG current change (%, negative = inhibition) at 1uM” value amounted to 6.62%.

On to `O=C(CSc1ncn(-c2ccccc2)n1)Nc1nc2ccccc2s1`, for which the “hERG current change (%, negative = inhibition) at 1uM” value was found to be 1.55%.

Regarding `Nc1nc(Nc2ccccc2)n[nH]1`, the “hERG current change (%, negative = inhibition) at 1uM” value is 10.7%. In the case of `COc1ccc(CCNC(=O)CCCN2C(=O)C(c3ccccc3)Oc3cccnc32)cc1OC` (stereo not shown), the “hERG current change (%, negative = inhibition) at 1uM” value amounted to 5.91%. The result for `O=C(/C=N/O)NCc1ccncc1` reads 16.4%; that for `CN(Cc1ccccc1)C(=C(Cl)Cl)/C(=C1/NCCN1C)[N+](=O)[O-]`, 15.2%. Next, `O=c1[nH][nH]c2cc(=O)n(-c3cccc(C(F)(F)F)c3)nc12`: -3.32%; `COC(=O)c1ccc(NC(=O)CSc2nncn2C)cc1`: 12.6%. The result for `CN1CCN(C(c2ccc(F)cc2)c2nnnn2Cc2cccs2)CC1.Cl` (stereo not shown) reads 3.46%; that for `O=c1cccc2n1C[C@H]1C[C@@H]2CN2CCCC[C@@H]12`, 6.46%; that for `COc1cc2[nH]c(=O)n(CCCC(=O)N3CC=C(c4ccccc4)CC3)c(=O)c2cc1OC`, 2.2%. With `Cn1nc(CSc2ccccc2)c(C=O)c1Cl`, the “hERG current change (%, negative = inhibition) at 1uM” value came to 9.69%.

For `CCOc1cccc(C(=O)Nc2cccc(-c3nc4ncccc4o3)c2C)c1`, the “hERG current change (%, negative = inhibition) at 1uM” value is listed as 3.28%.

On to `CN(C)CC/C=C1\c2ccc(F)cc2Sc2cc(F)c(Cl)cc21.Cl`, for which the “hERG current change (%, negative = inhibition) at 1uM” value was found to be 13.9%. For `COC(=O)c1cc(=O)c2c([N+](=O)[O-])ccc(OC)c2o1`, the “hERG current change (%, negative = inhibition) at 1uM” value is -1.55%.

For the molecule `Cc1cc(C)cc(C(=O)NC(CC(N)=O)c2ccc(NC3CCCCCC3)c([N+](=O)[O-])c2)c1` (stereo not shown), the “hERG current change (%, negative = inhibition) at 1uM” value was 7.44%. Next, `CCCn1c(CN2CCN(C(=O)OCC)CC2)nc2cc(NC(=O)CC)ccc21`: 14.6%; `Cn1c(CCN2CCCCC2)nc2cc(NC(=O)COc3ccccc3)ccc21`: -51.9%. The result for `Cc1ccc(C(C)C)c(OC(=O)/C=C/c2ccccc2)c1` reads -0.885%. The result for `C=C(C)COc1ccc(-c2[nH]ncc2-c2ccc(OC)c(OC)c2)c(O)c1` reads 2.3%.
